The values that follow come from PubChem BioAssay AID485344 (National Center for Advancing Translational Sciences (NCATS), 2010).

Usually inhibition stands for the change of the read-out against control, counted positive when it falls.

In all, about 340,000 compounds went through this assay and about 6,900 (2%) were called active. No stated cut-off is given here; in the data, active means inhibition above about 30%; inactive means below that, where a call was filed. The entries are a selection whose mix differs from that of the whole data set. Entries without a call were filed so in the source.

In this test the target is D(2) dopamine receptor (Homo sapiens) (UniProt P14416). Description: HTS Assay for Allosteric Antagonists of the Human D2 Dopamine Receptor: Primary Screen for Antagonists. Further: 0% is about no effect. Conditions: HEK293 TREx D2 cells, calcium flux, dopamine EC80; at 10 µM; stronger effect = higher value. An outline of the steps: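 Tetracycline-induced HEK293 T-REx cells expressing D2 force-coupled to calcium signalling were dye-loaded, exposed to compound for 180 s, then challenged with an EC80 of dopamine; calcium flux was followed kinetically for a further 180 s.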
Sequence of UniProt P14416 (P14416 whole entry, looked up): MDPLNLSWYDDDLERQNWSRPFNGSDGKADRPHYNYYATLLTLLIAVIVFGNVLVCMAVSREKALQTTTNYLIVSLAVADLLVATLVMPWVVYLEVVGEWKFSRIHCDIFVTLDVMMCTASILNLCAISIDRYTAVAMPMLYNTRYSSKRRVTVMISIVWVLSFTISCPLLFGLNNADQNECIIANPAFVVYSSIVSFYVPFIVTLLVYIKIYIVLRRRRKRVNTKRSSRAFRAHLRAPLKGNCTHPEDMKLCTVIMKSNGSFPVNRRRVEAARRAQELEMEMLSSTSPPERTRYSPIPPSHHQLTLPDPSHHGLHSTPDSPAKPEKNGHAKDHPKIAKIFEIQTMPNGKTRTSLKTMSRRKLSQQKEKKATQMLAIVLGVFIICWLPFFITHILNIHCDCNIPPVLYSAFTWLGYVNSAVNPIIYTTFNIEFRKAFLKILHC
A general note: Calcium flux is commonly read through the fluorescence of an indicator in the cells.
On to `COc1cccc(OC)c1C(=O)Nc1ccc2c(c1)CCCN2S(=O)(=O)c1ccc(C)cc1`, for which the inhibition was -2.71%.
Under `Cc1ccc(-c2nc3c(cnn3-c3ccccc3)c(=O)n2-c2ccc(Cl)cc2)cc1` stands -9.9%; under `Cc1ccc(CSc2nc3ccc(NC(=O)COc4ccccc4F)cc3s2)cc1`, -3.83%.
Turning to `O=C(CCCCn1c(=O)[nH]c2ccsc2c1=O)N1CCN(c2cccc(Cl)c2)CC1`, the inhibition was -15.1%.
For `CCN(CC)CCCNC(=O)Cn1c(-c2cccs2)cc2cc(Cl)ccc21` the value was 7.51%.
For `CCCCN(CCCC)S(=O)(=O)c1ccc2oc(C(=O)NCc3ccccc3)c(C)c2c1` the value was 11.5%; for `CCOC(=O)c1c(C)oc2c(Cl)cc(NS(=O)(=O)c3ccc(Cl)c(C)c3)cc12`, -25.1%; for `Cc1cc(C)c(/C=C/c2onc(C)c2S(=O)(=O)N2CCC(C(=O)NCc3ccco3)CC2)c(C)c1`, 6.31%.
For `O=C(CN1C(=O)C2(SCC(=O)N2c2cccc(Cl)c2)c2ccccc21)NC1CCCCC1` (centres undefined) the value was 6.87%; for `CCOC(=O)N1CCN(C(=O)CN(c2ccc(C)cc2C)S(=O)(=O)c2ccccc2)CC1`, -1.28%; for `CCOC(=O)c1c(C)[nH]c(C)c1S(=O)(=O)N(C)CC(=O)N1CCN(c2ccccc2OC)CC1`, 7.35%.
Consider `COc1ccc(NC(=O)Cn2cc(C(=O)C3CC3)c3ccccc32)cc1`, for which the inhibition was 1.82%.
Under `COC(=O)c1cc(NC(=O)CN(c2ccccc2)S(=O)(=O)N(C)C)ccc1Cl` stands 6.41%; under `NS(=O)(=O)c1ccc(CCNc2nc3c(-c4cccc(F)c4)nnn3c3ccc(Cl)cc23)cc1`, -5.98%; under `CCOc1ccccc1NC(=O)Cn1nnc2sc3c(c2c1=O)CCC(C(C)(C)C)C3` (centres undefined), -5.27%.
For `COc1ccc(C(=O)N2CCCCC2CCN2CCCCC2)cc1` (centres undefined) the value was -14.8%; for `O=S(=O)(c1cccs1)N1CCN(c2ccc(Cl)cc2)CC1`, -3.67%; for `CCC(CC)C(=O)Nc1ccccc1C(=O)OCc1cc(=O)n2nc(C3CCCCC3)sc2n1`, 14.9%.
For `COc1ccc(Cl)cc1N(C)C(=O)Cn1cnc2sc(C)c(S(=O)(=O)N3CCN(c4ncccn4)CC3)c2c1=O` the value was 0.724%; for `Cc1ccc(C)c(CN2C(=O)c3ccccc3S(=O)(=O)c3ccc(C(=O)N4CCOCC4)cc32)c1`, -7.8%.
Turning to `CCOc1ccc(CNC(=O)Cn2ncc3c(=O)oc4ccc(C)cc4c32)cc1`, the inhibition was -25.7%.
For `Cc1ccc(CNC(=O)C2CCN(S(=O)(=O)c3ccc4c(c3)oc(=O)n4C)CC2)cc1` the value was 23.4%.
`Cc1cc(C)cc(NC(=O)CSc2nc3nc(C)cc(C)c3c(=O)[nH]2)c1`: the inhibition is active: 34.6%.
For `CCc1ccc(-n2nc(C)c3c(C)cc(=O)n(CC(=O)Nc4ccc(OC)c(OC)c4)c32)cc1` the value was -1.92%; for `CCOC(=O)c1c(C)[nH]c(C)c1S(=O)(=O)N1CCCC(C(=O)N2CCN(c3cc(C)ccc3C)CC2)C1` (centres undefined), 10.3%.
As to `Cc1ccc(-c2cc(C(F)(F)F)n3nc(C(=O)Nc4ccc(C#N)cc4)cc3n2)cc1`, the inhibition is 7.17%.
For `CCCCC(=O)Nc1nc2c(s1)COc1ccccc1-2` the value was active: 52.4%; for `CCOc1ccccc1CNC(=O)CCCN1C(=O)CCn2nc(-c3cccn3C)cc21`, -8.21%.
For `Cc1cc(NC(=O)C2CCCN(S(=O)(=O)c3cccc4nonc34)C2)ccc1Br` (centres undefined) the value was -13.3%; for `COc1ccc(OC)c(CNCc2c(C(=O)O)n(Cc3ccccc3)c3cc(OC)ccc23)c1`, 6.4%; for `O=C1Nc2ccccc2Oc2cc(Oc3ccc(Cl)cc3)ccc21`, -19.2%.
Under `O=C(CN1N=C(c2ccc(Cl)cc2)CCC1=O)NCc1ccc(F)cc1` stands -14.4%.
As to `CCC(=O)N1CCc2cc(S(=O)(=O)NC(CC(C)C)C(=O)Nc3ccc(CC)cc3)ccc21` (centres undefined), the inhibition was -7.88%.
Under `CCc1cccc(C)c1NC(=O)c1cnn(-c2ccc(F)cc2)c1-n1cccc1` stands 17%; under `CSc1nn(Cc2cccc(F)c2)c(N(C(C)=O)C(C)=O)c1S(=O)(=O)c1ccccc1`, 7.91%.
As for `Cc1cccc2sc(N3CCN(C(=O)c4ccco4)CC3)nc12`, the inhibition is -8.76%.
For `Cc1cccc(S(=O)(=O)c2cn(Cc3ccccc3)c3cc(N4CCCC(C)C4)c(F)cc3c2=O)c1` (centres undefined) the value was 14.2%; for `CCOc1ccc(S(=O)(=O)Nc2ccc(-c3ccc(N4CCCC4)nn3)cc2)cc1`, 1.52%; for `COc1ccccc1CNC(=O)C(=O)NCC(c1ccc2c(c1)OCO2)N1CCOCC1` (centres undefined), -2.9%.
Under `CCc1ccc(-c2nc(SCC(=O)NCCOC)c(-c3ccc(C)cc3)[nH]2)cc1` stands -2.49%; under `CCc1ccc(CNc2nc3nc(C)c(Cc4ccccc4)c(=O)n3[nH]2)cc1`, -3.11%.
Turning to `CCc1ccc(CN2CCc3nc(Nc4ccc5c(c4)OCCO5)ncc3C2)cc1`, the inhibition was found to be 7.23%.
For `COc1ccc(Nc2nnc(-c3ccc(C)c(S(N)(=O)=O)c3)c3ccccc23)cc1` the value was 1.43%; for `CC(=O)c1cccc(NC(=O)C2=CC(c3ccco3)=NS(=O)(=O)N2C)c1`, 6.89%; for `COc1ccc(CCNc2oc(COc3ccc(Cl)cc3)nc2C#N)cc1OC`, 7.4%.
`CCc1ccc2nc(N3CCN(C(=O)c4ccco4)CC3)sc2c1`: the inhibition was -23.4%.
`Cc1ccc(NC(=O)Cn2c(=O)oc3cc(S(=O)(=O)N4CCCC4)ccc32)cc1F`: the inhibition is -3.39%.
With `CCOC(=O)c1ccc(NC(=O)C2CCCN(c3ncnc4onc(C)c34)C2)cc1` (centres undefined), the inhibition is -12.8%.
`Cc1nc2ccc(S(=O)(=O)CCC(=O)Nc3ccccc3C)cc2s1`: the inhibition was determined as 11.3%.
With `Cc1ccc2ncc3c(-c4ccccc4)nn(CC(=O)NC4CCCCC4)c3c2c1`, the inhibition is -4.44%.
For `O=C(CC1NCCNC1=O)Nc1cccc(F)c1` (centres undefined) the value was 16.5%; for `COc1ccccc1N1CCN(CCCNC(=O)Cn2ncc3c([nH]c4ccccc43)c2=O)CC1`, active: 90.3%; for `O=C(Nc1cccc(C(F)(F)F)c1)c1cc2ncc(Br)cn2n1`, active: 52.9%.
Under `COc1ccc(NC(=O)CSC2=Nc3ccccc3C3=NC(CCC(=O)NCc4ccco4)C(=O)N23)cc1` (centres undefined) stands -24.1%; under `O=C(Nc1ccc(NC(=O)c2cc3ccccc3o2)cc1)c1ccccc1`, 7.19%; under `Cn1cc(S(=O)(=O)c2ccc(Cl)cc2)c(=O)c2cc(F)c(N3CCCCCC3)cc21`, -0.917%.
For `O=C(CN1CCN(S(=O)(=O)c2cc(Cl)ccc2Cl)CC1)Nc1cccc(F)c1` the value was 4.39%; for `CC(C(=O)Nc1cccc(C#N)c1)n1nc(-c2ccccc2)c2c(c1=O)CCCC2` (centres undefined), -9.25%.
For `Fc1ccc(-c2nc(Nc3ccc(F)c(Cl)c3)nc3c2COc2ccccc2-3)cc1`, the inhibition worked out at 6.86%.
